Assay results taken from publication PMC4336329 (PLoS ONE, 2015).
Hit rate of the full screen: of about 310,000 compounds, about 14,000 (4.5%) showed an effect of 50% or more. The effect is printed as a negative number. Some of the results follow.

Molecular target: human ether-à-go-go-related gene (hERG) potassium channel (human, UniProt Q12809)
Assay: primary screen, population patch clamp on CHO cells stably expressing hERG
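Note: peak tail current of the secondary pulse compared with the same well before compound.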

Sequence of human ether-à-go-go-related gene (hERG) potassium channel (Q12809 whole entry, looked up): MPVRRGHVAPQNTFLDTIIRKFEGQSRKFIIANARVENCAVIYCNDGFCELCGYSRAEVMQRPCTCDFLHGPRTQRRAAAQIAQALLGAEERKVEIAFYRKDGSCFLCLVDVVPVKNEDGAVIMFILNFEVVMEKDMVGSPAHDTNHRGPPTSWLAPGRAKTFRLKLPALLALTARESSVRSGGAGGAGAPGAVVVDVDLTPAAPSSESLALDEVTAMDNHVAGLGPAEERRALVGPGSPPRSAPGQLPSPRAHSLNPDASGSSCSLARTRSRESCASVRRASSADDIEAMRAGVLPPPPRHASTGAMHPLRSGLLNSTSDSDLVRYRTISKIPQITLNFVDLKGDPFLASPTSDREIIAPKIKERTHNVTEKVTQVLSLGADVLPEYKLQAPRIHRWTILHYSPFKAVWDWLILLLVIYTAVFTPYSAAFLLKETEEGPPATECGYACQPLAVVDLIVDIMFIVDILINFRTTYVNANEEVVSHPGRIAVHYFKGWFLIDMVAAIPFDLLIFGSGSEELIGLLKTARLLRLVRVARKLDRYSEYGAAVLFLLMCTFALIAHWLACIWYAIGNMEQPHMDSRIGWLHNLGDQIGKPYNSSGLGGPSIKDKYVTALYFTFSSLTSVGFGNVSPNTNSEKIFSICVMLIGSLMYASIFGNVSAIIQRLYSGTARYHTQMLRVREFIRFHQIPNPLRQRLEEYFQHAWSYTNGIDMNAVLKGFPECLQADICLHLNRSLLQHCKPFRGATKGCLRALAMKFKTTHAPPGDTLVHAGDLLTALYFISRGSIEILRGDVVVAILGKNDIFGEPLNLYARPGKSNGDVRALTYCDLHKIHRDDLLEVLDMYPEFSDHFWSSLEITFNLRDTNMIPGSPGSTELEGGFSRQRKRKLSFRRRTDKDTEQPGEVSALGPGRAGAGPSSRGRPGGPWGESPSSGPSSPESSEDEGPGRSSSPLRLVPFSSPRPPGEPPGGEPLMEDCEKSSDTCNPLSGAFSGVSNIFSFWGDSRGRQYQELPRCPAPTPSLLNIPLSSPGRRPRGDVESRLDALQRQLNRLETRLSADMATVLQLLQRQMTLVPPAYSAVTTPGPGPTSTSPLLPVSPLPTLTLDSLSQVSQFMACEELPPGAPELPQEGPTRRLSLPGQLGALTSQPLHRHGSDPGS

Structure (SMILES) | hERG current change (%, negative = inhibition) at 10uM
O=C(Nc1cccc(S(=O)(=O)NC2=NCCC2)c1)c1cc(-c2ccco2)nc2ccccc12 | 7.49%
O=C(O)COc1ccc(/C=C2/SC(=S)N(Cc3ccccc3)C2=O)cc1 | 17.3%
O=C(Nc1ccc(N2CCCC2)cc1)c1cccc(F)c1 | 1.87%
CCn1c(CNC(=O)c2ccco2)nnc1SCC(=O)Nc1cc(F)ccc1C | -0.0602%
COc1ccc2nc(-n3c(O)c(C4=c5ccccc5=NC4=O)[nH]c3=S)sc2c1 | 5.96%
Cc1cc(C)n2c(SCCO)nnc2n1 | 14.9%
Cc1c(/C=N/NC(N)=O)c2ccccn2c1C(=O)c1ccc(F)cc1 | -5.23%
CC1C(=O)N2CCCc3cc(NS(=O)(=O)c4ccccc4)cc1c32 (centres unmarked) | 3.76%
O=[N+]([O-])c1ccc(Nc2nc(N/N=C\c3ccc4c(c3)OCO4)nc(N3CCCCC3)n2)cc1 | 10.1%
Cc1ccc(SSc2cc(C)ccc2N)c(N)c1 | 15.3%
CC1=NN(c2ccc([N+](=O)[O-])cc2)C(=O)/C1=C\N(C)C | -7.37%
O=C1Nc2cc3c(cc2C1=O)sc1ccccc13 | 20.9%
Cc1cccc(CCNC(=O)CC2C(=O)NCCN2Cc2ccccc2C)n1 (centres unmarked) | 11.6%
CC(=O)N1CCN(c2ccccc2NC(=O)Cc2ccc(Cl)cc2)CC1 | -64.8%
CC1CCN(Cc2nnnn2CCCC(=O)NCCc2cnn(C)c2)CC1 | 7.62%
CCNC(=S)/C(=C(/[O-])c1ccc([N+](=O)[O-])cc1)[n+]1ccccc1 | 19.4%
O=C(NC1CCN(C(=O)Nc2cccc(Cl)c2)CC1)C1CCCCC1 | 13.1%
CCC(C)(C)NC(=O)CN(C(=O)c1csnn1)c1ccccc1-c1ccccc1 | 9.75%
Cc1cnc(=O)[nH]c1SCc1ccccc1F | 14.5%
CCCCN(CCCC)C(=S)N/N=C/c1c(C)[nH]n(-c2ccccc2)c1=O | 12.2%
CC(Cc1ccccc1)NC(=O)CCCN1C(=O)c2ccccc2C1=O (centres unmarked) | -11.8%
CNC(=O)NC(=O)COC(=O)c1ccccc1OCc1ccccc1 | 2.01%

Structure (SMILES) | hERG current change (%, negative = inhibition) at 10uM
Cc1nn(-c2ccccc2)c(C)c1C(=O)OCC(=O)Nc1ccccc1 | -7.85%
Cc1ccc(S(=O)(=O)N2CCCC2)cc1C(=O)NCc1ccccn1 | 5.54%
Cn1c(CSc2ncccn2)nnc1SCC(=O)N1CCCCCC1 | 42.2%
CC(CN1C(C)CCCC1C)OC(=O)c1ccc(Cl)cc1 (centres unmarked) | -44.8%
CC(C)(C)c1nnc2sc(SCCN3C(=O)c4ccccc4C3=O)nn2c1=O | -1.17%
Cc1ccn2cc(CNS(=O)(=O)c3ccc4c(c3)OCCO4)nc2c1 | -3.84%
CCOc1ccc(S(=O)(=O)Nc2ccccc2C(=O)N(C)C2CCN(C)CC2)cc1 | 3.89%
CC[C@@]1(O)C(=O)OCc2c1cc1n(c2=O)Cc2cc3ccccc3nc2-1 | 7.07%
CCc1nnc(NC(=O)CSc2nnc(CSc3nc(C)cc(C)n3)n2C)s1 | 7.01%
Cc1nn2c(C)c(C(=O)Nc3ccccc3)cnc2c1C#N | 10.7%
O=C(NCc1ccccn1)c1c(O)c2c([nH]c1=O)CCCC2 | 10.5%
CC(/C=C/c1ccc2c(c1)OCO2)=N/NC(=O)c1ccncc1 | -11.1%
O=C(Nc1ccc2c(c1)OCO2)c1ccc(=O)[nH]n1 | -4.18%
CCOC(=O)c1[nH]c2ccc(OC)cc2c1NC(=O)CCN1CCSCC1 | -5.8%
CCOc1cc(/C=N/NC(=O)c2cccs2)ccc1OC(=O)N1CCOCC1 | 18.5%
O=C(COc1cccnc1[N+](=O)[O-])Nc1cc(S(=O)(=O)N2CCCCC2)ccc1Cl | 4.68%
CC(C)(C)OC(=O)N1CCC(CC2CC(c3ccc(Cl)cc3)=NO2)(C(=O)NCC2CCCCC2)CC1 (centres unmarked) | -19.5%
CCCCn1c(N)c(N(CCC(C)C)C(=O)c2ccc(N3CCCC3=O)cc2)c(=O)[nH]c1=O | 0.521%
Cc1nonc1NC(=O)CSc1nc2ccccc2o1 | -36.8%
CCCc1cc(=O)[nH]c(SCCOC(=O)c2ccccc2)n1 | -11.4%
COC(=O)c1ccc(NCC(=O)Nc2cc(C)cc(C)c2)cc1 | 0.766%
COc1ccc(C(=O)C2CCN(C(=O)c3ccc(C)cc3)CC2)cc1 | -66.3%
